# Reference: PubChem BioAssay AID2060902 (Molecular Pharmacology Branch, DTP, NCI, 2025)
# A number of entries come with more than one value. The list is limited to them. An entry can have further records. The records of an entry repeat one measurement (runs, samples, wells, individuals or studies).
# Tested on: 485368-065-R3-J5-PDC spheroids with HUVEC/MSC, viability
# Test: Anticancer human tumor 485368-065-R3-J5-PDC patient-derived pancreatic carcinoma cell line growth inhibition [RAS]
# Conditions: for IC50: compound alone; for viability, T/C: stronger effect = lower value
# Description: RAS pathway inhibitors in Combinations in Complex Spheroids
# A high-throughput screen of multi-cell type tumor spheroids was designed to identify active combinations of RAS pathway inhibitors and targeted small molecules. Complex spheroids include a stromal component modeled by human endothelial cells (HUVEC) and fibroblasts modeled by human mesenchymal stem cells (MSCs). The concentration ranges selected for each drug and investigational agent were based upon clinically achievable concentrations if the clinical Cmax of the agent was known.
# Compounds. The drugs and investigational agents: abemaciclib (NSC768073), cobimetinib (NSC768068), divarasib (GDC6063, NSC841802), docetaxel (NSC628503), GDC-1971 (RLY-1971, NSC841576), gemcitabine (NSC613327), inavolisib (NSC800729), ipatasertib (NSC767898), KB-0742 (NSC834161), MRTX-1133 (NSC836407), osimertinib (NSC779217), RMC-4630 (NSC839698), RMC-6236 (NSC851965), RMC-6291 (NSC852671), Ro-3306 (NSC812927), sapanisertib (NSC764658), SN-38 (NSC673596), staurosporine (NSC755774), SY5609 (NSC837396), and tovorafenib (DAY101, NSC766906), were obtained from the National Cancer Institute (NCI) Developmental Therapeutics Program Chemical Repository. The FDA-approved anticancer drug set is available from the NCI Developmental Therapeutics Program. […] The stock solutions were prepared in dimethyl sulfoxide (DMSO, Sigma-Aldrich, St. Louis, MO, cat. D2650) at 800-fold the tested concentration and stored at -70 degrees C prior to their use. All drugs and investigational agents were tested over a range starting from a high concentration at or near the clinical Cmax and decreasing in half-log increments. If the clinical Cmax for an agent had not been determined, the highest concentration tested was 10 microM.
# Cell Culture. All cells were maintained in an incubator at 37 degrees C and 5% CO2 with 95% humidity. The PDC lines were cultured according to standard operating procedures established by the NCI PDMR. All PDCs were thawed and cultured in Matrigel-coated flasks prepared with a working solution of 1X Ham's F-12 nutrient mix, without supplementation (Invitrogen, Waltham, MA, cat. 11765054), 100 U/mL penicillin-streptomycin (Invitrogen, cat. 15140122), and 2.5% Matrigel (Corning Inc., Corning, NY, cat. 354248) for the first three passages. The 362531-283-R-J2-PDC and 782815-120-R-J1-PDC lines were cultured in 6C/Colon 1B media, which includes advanced DMEM/F-12 (Thermo Fisher Scientific, cat. 12634028), 10 mM HEPES (Thermo Fisher Scientific, cat. 15630080), 1X GlutaMAX supplement (Thermo Fisher Scientific, cat. 35050061), 0.1 mg/mL primocin (InvivoGen, San Diego, CA, cat. ant-pm-2), 10% defined fetal bovine serum, heat inactivated (HyClone Laboratories Inc., Logan, UT, cat. SH30070.03HI), 50% L-WRN conditioned media (ATCC, cat. CRL-3276), 1.25 mM N-Acetyl-L-cysteine (Sigma-Aldrich, cat. A9165), 10 mM nicotinamide (Sigma-Aldrich, cat. N0636), 1X B-27 supplement (Thermo Fisher Scientific, cat. 17504044), 1X N-2 supplement (Thermo Fisher Scientific, cat. 17502048), 50 ng/mL human EGF (Thermo Fisher Scientific, cat. PHG0311), and 10 microM Y-27632 dihydrochloride (Tocris Bioscience, cat. 1254). The K12877-001-R-J1-PDC line was cultured in 6I media, which includes all 6C/Colon 1B media plus 10 ng/mL human FGF-10 (PeproTech, cat. 100-26), 1 ng/mL human FGF-2 (PeproTech, cat. 100-18B), 1 µM prostaglandin E2 (Tocris Bioscience, cat. 2296), […] hydrocortisone (Sigma-Aldrich, cat. H4001), and […] bovine insulin (Sigma-Aldrich, cat. I6634). The K86415-001-R-J1-PDC line was cultured in 6D media, which includes all 6C/Colon 1B media components minus the L-WRN conditioned media. The 485176-168-R4-J1-PDC was cultured in PANC media, which includes all 6C/Colon 1B media plus 100 ng/mL human FGF-10 (PeproTech, cat. 100-26), 500 nM SB-431542 (Selleckchem, cat. S1067), and 10 nM gastrin (Tocris Bioscience, cat. 3006). […]
# 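Note: spheroids exposed to agents for seven days before readout.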
SMILES,IC50,"viability, T/C (compound alone 3.16 µM)","viability, T/C (compound alone 10 µM)",also measured
CCN1CCN(Cc2ccc(Nc3ncc(F)c(-c4cc(F)c5nc(C)n(C(C)C)c5c4)n3)nc2)CC1,"734, 851, 225, 412 nM",,,
Cc1nc(N2CCC3(CC2)COC(C)C3N)c(CO)nc1Sc1ccnc(N)c1Cl (stereo unspecified),,"87.1, 86, 71.1, 56.7%","76.2, 81.4, 61.7, 56.4%",
NC1c2ccccc2OC12CCN(c1cnc3c(N4CCCc5ncccc54)n[nH]c3n1)CC2 (stereo unspecified),,"79.7, 87.3, 58.6, 64.1%","83.6, 94.4, 61.6, 66.1%","viability, T/C (compound alone 0.316 µM): 85.2, 86, 70.5, 59.5%"
CC1(C)CCC(Nc2ncc(C(F)(F)F)c(-c3c[nH]c4c(P(C)(C)=O)c(C#N)ccc34)n2)CN1 (stereo unspecified),"14.4, 12.5, 3.86, 3.42 nM",,,"viability, T/C (compound alone 0.000949 µM): 114, 118, 106, 92%; viability, T/C (compound alone 0.003 µM): 87.4, 75.5, 54.4, 53%; viability, T/C (compound alone 0.00949 µM): 52.8, 53.1, 34.9, 27.3%"
CCC(CC)c1cc(NC2CCC(N)C2)n2nccc2n1 (stereo unspecified),,,,"viability, T/C (compound alone 1 µM): 140, 113, 137, 131%"
